Results: PubChem BioAssay AID1240 (Sanford-Burnham Center for Chemical Genomics, 2008)
The campaign covered roughly 50,000 compounds. About 800 (1.6%) showed an effect of 50% or more. The list shows a part of the results.

These compounds were tested against Bcl-2-like protein 10 (Homo sapiens) (UniProt Q9HD36) (assay: Phenotype converters, Bcl-B/TR3 peptide binding displacement, primary biochemical FP (AID 1240;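 further: 0% = Bcl-B with tracer peptide and DMSO and 100% = tracer peptide lacking Bcl-B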)). Conditions: GST-Bcl-B / FITC-TR3 peptide fluorescence polarization; stronger effect = higher value; compound at 3.75 mg/L.
UniProt Q9HD36, sequence (Q9HD36 whole entry, looked up): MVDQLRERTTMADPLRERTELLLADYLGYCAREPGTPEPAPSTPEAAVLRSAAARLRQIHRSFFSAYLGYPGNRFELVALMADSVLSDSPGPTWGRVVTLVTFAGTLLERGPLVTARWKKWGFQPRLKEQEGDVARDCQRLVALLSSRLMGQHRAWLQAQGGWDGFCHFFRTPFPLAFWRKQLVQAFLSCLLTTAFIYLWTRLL

SMILES	displacement [%]
CCCCOc1ccccc1C=C1C(=O)NC(=S)NC1=O	5.7
COC(=O)c1ccccc1NC(=O)CSc1nnc(-c2cccc(F)c2)n1-c1ccccc1	-1.1
Cc1ccccc1NC(=O)CSc1nnc(C)c2ccccc12	6.5
CC(C)C(NC(=O)CN(c1cccc([N+](=O)[O-])c1)S(=O)(=O)c1ccccc1)C(C)C	11.1
CCNC(=O)C(=O)Nc1ccccc1C	6.5
COCCOC(=O)c1ccc(NC(=O)c2ccc(C(C)(C)C)cc2)cc1	11.1
O=C(O)Cn1c(SCCOc2ccc(Cl)cc2)nc2ccccc21	9
O=C(Cn1cnc([N+](=O)[O-])n1)Nc1ccc(Br)cc1	1.4
CCn1c2ccccc2c2cc(NC(=O)c3cccc(C)c3)ccc21	3.9
N#C/C(=C/c1ccc(/C=C(\C#N)C(N)=O)cc1)C(N)=O	6.1
CC(C)(C)C1CCc2c(sc(NC(=O)c3ccncc3)c2C(N)=O)C1 (stereo not drawn)	-4
COc1cc(Br)c(/C=C2/C(=O)N(c3ccc(C)cc3)N=C2C)cc1OC	-5.3
Oc1[nH]c2ccccc2c1N=Nc1nc(-c2ccccc2)c2cc(Cl)ccc2n1	24.4
Clc1ccc(N2CCN(N=Cc3cccc(Cl)c3)CC2)cc1	-11.5
CCN1C(=O)/C(=C\c2cn(Cc3ccccc3Cl)c3ccccc23)SC1=S	34.2
CCOc1cc(C(=O)Nc2nc3ccccc3[nH]2)cc(OCC)c1OCC	-9.6
Cc1ccc(C(O)(c2ccccc2)c2nc3ccccc3n2C)cc1 (stereo not drawn)	-1
CCOC(=O)c1cc(-c2ccc(N)cc2)nc2ccc(Br)cc12	-6.1
COC(=O)c1cc(NC(=O)c2cc(-c3cccc(OC)c3)nc3ccccc23)cc(C(=O)OC)c1	8.2
CCN(CC)CCn1c(SCc2ccccc2)nc2ccccc21	-4.7
Cc1ccc(C(=O)Oc2ccc(/C=C3\SC(=S)NC3=O)cc2)cc1	13.6
COc1ccc(-c2cc(=O)n3[nH]c(-c4ccc(C)cc4)c(C)c3n2)cc1	12.8
CCc1ccc(NC(=O)CSc2ccccn2)cc1	0.1

SMILES	displacement [%]
O=C(NC(=S)NCc1ccccn1)c1ccc([N+](=O)[O-])cc1	-7.3
CCCOc1ccc(C(=O)Nc2ncc(Cc3cccc(Cl)c3)s2)cc1	-11.3
Cc1cc(C)nc(/N=C(/N)Nc2ccc(Cl)cc2[N+](=O)[O-])n1	2.1
O=C(CSc1nc2ccccc2s1)N1c2ccccc2Sc2ccccc21	-8.5
CC(=O)Nc1ccc(S(=O)(=O)NCc2cccnc2)cc1	-0.9
Cc1ccc(S(=O)(=O)N/N=C/c2ccc(OC(=O)c3ccccc3[N+](=O)[O-])cc2)cc1	1.4
O=C1C(=O)N(c2cccnc2)C(c2cccc([N+](=O)[O-])c2)/C1=C(\O)c1ccc(Cl)cc1 (stereo not drawn)	-15.1
C=CCN1C(=O)/C(=C\c2cc(Br)c(O)c(OCC)c2)C(=O)NC1=S	-12.5
Cc1cc(-c2ccc(NC(=O)c3cccnc3)c(C)c2)ccc1NC(=O)c1cccnc1	9.8
CC1=NN(C(=O)CSc2ccccn2)C(C)(O)C1 (stereo not drawn)	13.6
O=C(NCCO)C(=O)Nc1ccccc1	11.1
CCOc1ccc(-c2cc(C(=O)O)c3cc(Br)ccc3n2)cc1	-7.2
CCOc1cc(/C=C2\C(=O)NC(=O)N(c3ccc(Cl)cc3)C2=O)cc(Br)c1OC	6.4
CC(=O)NC1=NN(C(C)=O)C(C)(CCS(=O)(=O)c2ccc(Br)cc2)S1 (stereo not drawn)	0.1
CCCC(=O)Nc1nc(-c2ccccc2)cs1	-5.5
COc1ccc(CNC(=O)CSCc2cccc(Br)c2)cc1	0.5
O=C1C(Cl)=C(Nc2ccccc2)C(=O)N1c1cccc(Cl)c1	-1.3
Cc1[nH]n(-c2ccccc2)c(=O)c1C=Nc1ccc(S(=O)(=O)N(C)C)cc1	3.8
Cc1ccc(-c2nc(-c3ccc(F)cc3)no2)cc1	1.4
CC(=O)NC1=NN(C(C)=O)C(C)(c2ccccc2)S1 (stereo not drawn)	13.3
CCOC(=O)C1C(=O)N(C(=O)c2cncc(Br)c2)CC1c1ccccc1 (stereo not drawn)	-0.6
Oc1oc(-c2ccccc2)nc1C=Nc1ccc(Cl)c(Cl)c1	2.4
COc1ccc(/C=C/C(=O)c2ccc(C)cc2)cc1[N+](=O)[O-]	-2.1

SMILES	displacement [%]
Cc1cc(C)c(NC(=O)C(c2ccccc2)c2ccccc2)c(C)c1	-0.5
COc1cc(OC)cc(C(=O)N2CCN(Cc3ccco3)CC2)c1	3.7
CCSc1nnc(NC(=O)c2ccc(Cl)c(Cl)c2)s1	2.5
OCCCNCC(O)Cn1c2ccccc2c2ccccc21 (stereo not drawn)	-13.4
O=C(CN(c1ccc(F)cc1)S(=O)(=O)c1ccccc1)NCCSc1ccccc1	-10.4
Cc1oc2ccc(OCc3c(F)cccc3Cl)cc2c1C(=O)O	11.7
COC(=O)C1=C(C)NC2=C(C(=O)c3ccccc32)C1c1ccc(OCc2ccc(Cl)cc2Cl)c(OC)c1 (stereo not drawn)	-0.2
O=C1NC(=O)N(c2cccc(Br)c2)C(=O)/C1=C/c1ccc(O)cc1	-0.9
CC(C)(C)c1ccc(-c2nc(-c3ccc(F)cc3)no2)cc1	-4.4
CC12CCC(C(=O)N(c3cccc(F)c3)C1=O)C2(C)C (stereo not drawn)	-1.1
COc1ccc(N(Cc2ccc(C(=O)NC3CCCC3)cc2)S(=O)(=O)c2ccccc2)cc1	-14.5
CC1=C(C(=O)Nc2ccccc2C)C(c2ccc(F)c(F)c2)C2=C(CC(C)(C)CC2=O)N1 (stereo not drawn)	8.8
Oc1ccc(C(=S)N2CCOCC2)cc1	12.8
COC(=O)CNc1cccc(C(=O)O)c1	6.5
CC(=O)c1c(C)oc2c(Br)cc(NS(=O)(=O)c3ccc(Cl)cc3)cc12	-4.2
COC(=O)c1ccc(-n2c(C)cc(C=C3C(=O)NC(=S)NC3=O)c2C)cc1	24.8
CCCOc1cccc(C(=O)Nc2cccc(-c3nc4ccccc4[nH]3)c2)c1	-2.5
CC(C(=O)NCCCN1CCOCC1)(c1ccccc1)c1ccccc1	9.1
Cc1ccc(N(Cc2ccc(C(=O)N/N=C/c3cc(Br)c(C)o3)cc2)S(C)(=O)=O)cc1C	-39.4
CCC(Sc1nc(C)cc(C)n1)C(=O)Nc1ccc(S(N)(=O)=O)cc1 (stereo not drawn)	-8.7
COc1ccc(NC2=CC(c3cccc([N+](=O)[O-])c3)N(c3ccc(OC)cc3)C2=O)cc1 (stereo not drawn)	5.9
COc1cccc(C(=O)N2CCN(C3CCN(Cc4ccccc4)CC3)CC2)c1OC	-5.2
